Reference: publication PMC4336329 (PLoS ONE, 2015)
Among all 310,000 compounds or so, about 14,000 (4.5%) showed an effect of 50% or more. The effect is printed as a negative number. Some of the results follow.

Each compound was assayed against human ether-à-go-go-related gene (hERG) potassium channel (human, UniProt Q12809) (assay: primary screen, population patch clamp on CHO cells stably expressing hERG).
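Further: peak tail current of the secondary pulse compared with the same well before compound.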

Chain of human ether-à-go-go-related gene (hERG) potassium channel (Q12809 whole entry, looked up): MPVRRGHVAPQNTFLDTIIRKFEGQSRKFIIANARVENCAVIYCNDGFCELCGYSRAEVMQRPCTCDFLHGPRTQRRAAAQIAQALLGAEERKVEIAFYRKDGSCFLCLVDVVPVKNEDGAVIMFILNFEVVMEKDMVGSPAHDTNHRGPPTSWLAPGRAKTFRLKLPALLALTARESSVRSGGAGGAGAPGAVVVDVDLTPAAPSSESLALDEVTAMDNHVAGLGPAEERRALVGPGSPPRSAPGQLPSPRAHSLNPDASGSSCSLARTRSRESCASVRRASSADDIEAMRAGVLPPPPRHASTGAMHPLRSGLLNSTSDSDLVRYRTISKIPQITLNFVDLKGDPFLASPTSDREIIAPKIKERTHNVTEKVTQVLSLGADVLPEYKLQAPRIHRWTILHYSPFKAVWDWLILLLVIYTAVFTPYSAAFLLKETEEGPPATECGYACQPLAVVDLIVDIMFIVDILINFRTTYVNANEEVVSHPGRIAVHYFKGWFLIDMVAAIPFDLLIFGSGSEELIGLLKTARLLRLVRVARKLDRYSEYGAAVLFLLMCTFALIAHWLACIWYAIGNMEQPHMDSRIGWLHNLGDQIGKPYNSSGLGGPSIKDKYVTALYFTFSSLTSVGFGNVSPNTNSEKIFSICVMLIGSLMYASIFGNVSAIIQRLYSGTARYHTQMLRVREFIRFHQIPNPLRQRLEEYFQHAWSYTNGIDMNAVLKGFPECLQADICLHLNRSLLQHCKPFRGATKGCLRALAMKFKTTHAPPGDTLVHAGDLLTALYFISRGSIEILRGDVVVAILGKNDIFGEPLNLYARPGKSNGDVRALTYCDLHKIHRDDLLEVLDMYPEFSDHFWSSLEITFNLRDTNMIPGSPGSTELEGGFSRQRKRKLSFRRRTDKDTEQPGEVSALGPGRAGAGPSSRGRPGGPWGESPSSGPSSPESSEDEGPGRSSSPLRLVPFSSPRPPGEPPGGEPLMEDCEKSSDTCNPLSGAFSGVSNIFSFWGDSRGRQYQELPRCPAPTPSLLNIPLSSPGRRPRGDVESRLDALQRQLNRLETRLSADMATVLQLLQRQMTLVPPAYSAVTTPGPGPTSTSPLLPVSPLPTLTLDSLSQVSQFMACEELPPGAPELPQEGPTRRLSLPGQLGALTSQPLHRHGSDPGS

Compound | hERG current change (%, negative = inhibition) at 10uM [%]
CC(C)(C)OC(=O)N1CCN(C(=O)c2[nH]cnc2C(=O)Nc2cccc(Cl)c2)CC1 | 9.56
O=C(NNC1OC(CO)C(O)C(O)C1O)c1cccnc1 (centres unmarked) | 29.5
O=C(N/N=C/c1cccs1)C(=O)N1CCCC1 | 13.8
Cc1ccc(-c2noc(C3CCCN(S(=O)(=O)c4ccc5ccccc5c4)C3)n2)o1 (centres unmarked) | 4.15
CCCN(CC(=O)Nc1ccccc1C)C(=O)C1CC(=O)N(c2cccc(C)c2C)C1 (centres unmarked) | -3.81
O=C(NCCS(=O)(=O)N1CCN(c2ccccc2F)CC1)c1cccs1 | -6.66
Clc1ccc(C2CC(c3ccccc3)Nc3ncnn32)cc1 (centres unmarked) | -64.4
Clc1ccsc1-c1ccc2ccccc2n1 | 19.7
OCCC1CN(Cc2ccc3nsnc3c2)CCN1C1CCCCC1 (centres unmarked) | -44.6
O=C(COC(=O)c1ccco1)Nc1nc2ccc([N+](=O)[O-])cc2s1 | -17.6
CN(c1ccccc1)c1nc(N)c([N+](=O)[O-])c(NCc2ccccc2)n1 | 17.6
O=C(NC1CCN(S(=O)(=O)c2ccccc2F)CC1)c1cccnc1 | 12.6
COc1ccc(C(=O)NCCc2c[nH]c3ccccc23)cc1[N+](=O)[O-] | -23.1
Cc1cc(Nc2ccccc2Cl)c2ccccc2n1 | -64.2
CCOC(NC(=O)c1ccccc1)C(NC(=O)c1ccccc1)OCC (centres unmarked) | -0.069
O=C(CCCn1c(=O)[nH]c2cc(Cl)ccc2c1=O)N1CCC2(CC1)OCCO2 | -13.4
CCOc1ccc(Nc2nc3ccccc3n3cnnc23)cc1 | -7.3
CC1CCCC(C(=O)O)N1C(=O)CCSC(=O)c1ccccc1 (centres unmarked) | -0.246
CCN(CC)CCN(C(=O)c1ccc2ncsc2c1)c1nc2cc3c(cc2s1)OCO3.Cl | -61.8

Compound | hERG current change (%, negative = inhibition) at 10uM [%]
O=C(O)C(=O)O.O=C(c1ccccc1)c1ccc(OCCOCCN2CCN(Cc3ccccc3)CC2)cc1 | -78.9
O=C(c1ccc([N+](=O)[O-])cc1)N1CCSC1c1ccccc1Cl (centres unmarked) | 7.77
COc1cccc(OCc2nnc(SCc3cc(=O)[nH]c4ccccc34)o2)c1 | -11.4
CCOc1ccccc1NC(=O)CSc1nc(=O)n(CCCN2CCOCC2)c2c1CCCC2 | -31.1
COc1cc(N2CCOCC2)ccc1C=C1C(=O)NC(=O)NC1=O | 24.6
COc1cccc(NC(=O)c2sc(NC(=O)c3ccncc3)nc2C)c1 | -8.58
O=C(CNC(=O)c1ccccc1Br)N/N=C/c1ccc(O)cc1 | 11
CN(Cc1ccccc1)C(=O)c1ccc(NC(=O)Cc2cccc(NC(=O)C3CCN(C(=O)C4CC4)CC3)c2)cc1 | 3.64
CC1CN(c2ccc([N+](=O)[O-])cc2Cl)CCN1.Cl (centres unmarked) | -16.6
Cc1ccc(NS(=O)(=O)c2ccc(C(=O)N3CCCC(C(F)(F)F)C3)cc2)cc1 (centres unmarked) | 16
CCOC(=O)Cc1csc(N/N=C\c2ccccc2OC)n1 | 2.26
CCN(C1CCCCC1)S(=O)(=O)c1ccc(S(=O)(=O)NCCc2ccncc2)cc1 | 7.48
CCN(CC)c1nc2ccccc2n2cnnc12 | -16.4
O=C(c1ccc(S(=O)(=O)Nc2ccccc2)cc1)N1CCC1 | 9.8
COc1ccc(-c2cccc(NS(=O)(=O)c3cc([N+](=O)[O-])ccc3Cl)c2)nn1 | -9.11
COC(=O)CSc1nc2ccc(NC(=O)c3ccccc3C(=O)N3CCOCC3)cc2s1 | -13.6
O=C(COC(=O)/C=C/c1ccc(S(=O)(=O)N2CCc3ccccc32)cc1)NC1CCS(=O)(=O)C1 (centres unmarked) | 6.73
COc1ccc(OC(C)C(=O)Nc2cccnc2)cc1 (centres unmarked) | 4.48
O=C(OCCOc1ccccc1)c1n[nH]c2ccccc12 | 5.04

Compound | hERG current change (%, negative = inhibition) at 10uM [%]
Cc1cc2cc(CNC(=O)C3CC3)ccc2n1C | -17.3
CSc1ncc(F)c(N(CCO)CCO)n1 | 10.5
CC(OC(=O)COc1ccccc1)C(=O)NC1CCCC1 (centres unmarked) | 5.47
CCCCNC(=S)Nc1cc(S(=O)(=O)N2CCCCC2)ccc1C | -0.674
CC1CCN(CCCNC(=O)c2cn(C)c3ccc(S(=O)(=O)N4CCCC4)cc3c2=O)CC1 | 8.26
CCC(CO)n1c(SCc2cc([N+](=O)[O-])cc3c2OCOC3)nc2ccccc2c1=O (centres unmarked) | -0.217
COc1cc(CNC2CCCC2)cc(Cl)c1OCc1ccccc1Cl.Cl | -30
COc1ccc(NC(=S)N(Cc2ccc(N(C)C)cc2)Cc2ccco2)cc1 | -17.7
CCCCNc1c(N2CCN(C(=O)OCC)CC2)c(=O)c1=O | 1.29
CCOC(=O)N1CCC(NC(=O)C(NS(=O)(=O)c2cccc3nsnc23)c2ccccc2)CC1 (centres unmarked) | -6.45
N#Cc1c(N)nc(SCc2ccccn2)c(C#N)c1-c1cccs1 | 11.9
O=[N+]([O-])c1ccc(CCNc2cccc3ccccc23)c([N+](=O)[O-])c1 | 5.64
COc1cccc(NC(=S)NNC(=O)c2ccccc2OC(F)F)c1 | 12.3
COc1ccc(C(=O)NCc2nnc(SCC(=O)N3CCCC3)o2)cc1 | 5.71
CC(=O)NN1C(=O)c2ccccc2NC1c1ccccn1 (centres unmarked) | 5.85
COc1ccc(-c2nn(C)c(=O)c3ccccc23)cc1NC(=O)COc1ccc(C)cc1 | -3.65
O=C(NCSc1ccccc1)c1ccccc1 | 17.7
COc1ccc(CNC(=O)c2c(O)c3ccccc3n(C)c2=O)cc1OC | 9.52
